# Measured values from the antibiotic and cytotoxicity screens of Wong et al. (2023).
# This is one part of the list.
# What was measured:
# HSkMC = human skeletal muscle cells; assay: cytotoxicity call (relative viability < 0.9); conditions: 10 µM
# HepG2 = assay: cytotoxicity call (relative viability < 0.9); conditions: 10 µM
# S. aureus RN4220 = assay: growth inhibition call (relative growth <= 0.2); conditions: 50 µM
Compound,cytotoxicity call (HSkMC),cytotoxicity call (HepG2),growth inhibition call (S. aureus RN4220)
C[C@H]1CN([C@@H](C)CO)C(=O)c2cccc(NS(=O)(=O)c3cn(C)cn3)c2O[C@H]1CN(C)C(=O)Nc1ccccc1,inactive,inactive,inactive
COc1ccc(NC(=O)N(C)C[C@H]2OCCCC[C@@H](C)Oc3ccc(NC(=O)c4ccncc4)cc3C(=O)N([C@H](C)CO)C[C@H]2C)cc1,inactive,inactive,inactive
C[C@@H]1CCCCO[C@H](CN(C)Cc2ccc(C(F)(F)F)cc2)[C@H](C)CN([C@@H](C)CO)C(=O)c2cc(NC(=O)Cc3ccccc3)ccc2O1,inactive,inactive,inactive
COc1ccc([Si](C)(C)[C@H]2[C@H](CCn3cc([C@H](O)c4ccccc4)nn3)O[C@@]3(C(=O)N(Cc4cccc(N5CCC5=O)c4)c4ccccc43)[C@@H]2C)cc1,inactive,inactive,inactive
C[C@@H]1CCCCO[C@H](CN(C)C(=O)Nc2ccccc2)[C@@H](C)CN([C@@H](C)CO)C(=O)c2cc(NC(=O)Cc3ccccc3)ccc2O1,inactive,inactive,inactive
C[C@H](CO)N1C[C@H](C)[C@H](CN(C)S(=O)(=O)c2cccs2)Oc2c(NC(=O)c3cnccn3)cccc2C1=O,inactive,inactive,inactive
C[C@H]1CN([C@@H](C)CO)C(=O)c2cc(NC(=O)Nc3ccc4c(c3)OCO4)ccc2O[C@H]1CN(C)Cc1ccc(-c2ccccc2)cc1,inactive,inactive,inactive
C[C@H](CO)N1C[C@H](C)[C@@H](CN(C)C(=O)C2CCCCC2)OCCCC[C@H](C)Oc2ccc(NC(=O)c3ccncc3)cc2C1=O,inactive,inactive,inactive
COc1ccc(NC(=O)Nc2ccc3c(c2)C(=O)N([C@@H](C)CO)C[C@H](C)[C@H](CN(C)Cc2ccc(C(=O)Nc4ccccc4N)cc2)O3)cc1,inactive,inactive,inactive
C[C@H]1CN([C@@H](C)CO)C(=O)Cc2cc(NC(=O)Nc3cccc4c3CCCC4)ccc2O[C@H]1CN(C)S(=O)(=O)c1ccc(Oc2ccccc2)cc1,inactive,active,inactive
